Reference: the RNAGym collection of RNA variant scans (doi:10.1073/pnas.2313332121)
Variants at the floor of the assay are shown more often than the library holds them.

B1: TPR 5TU (parent)
chain: GGAUCUUCUCGAUCUAACAAAAAAGACAAAUCUGCCACAAAGCUUGAGAGCAUCUUCGGAUGCAGAGGCGGCAGCCUUCGGUGGCGCGAUAGCGCCAACGUUCUCAACUAUGACACGCAAAACGCGUGCUCCGUUGAAUGGAGUUUAUCAUG

Variants of: B1
Assay: polymerase ribozyme fitness, log enrichment relative to wild type (log ratio); higher = more active; in vitro selection for triplet polymerase activity
Procedure, shortened: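 Streptavidin-bead capture of gel-excised extended constructs, followed by RT-PCR, closed a single triplicate in vitro selection round. That round began by annealing PCR-built, transcribed mutant libraries of each subunit of a heterodimeric triplet polymerase ribozyme with a biotinylated primer, the partner subunit and triplets, then incubating them frozen at −7 °C. After Illumina sequencing of inputs and outputs, genotypes needed ≥10 input reads and ≥1 read per output. Fitness is the base-2 logarithm of genotype enrichment over wild-type enrichment, using inverse-variance-weighted replicate averages.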

Polymerase ribozyme fitness (log ratio), -2.08:
A17U C54G C96U

Polymerase ribozyme fitness (log ratio), -4.01:
A17G G100U

Polymerase ribozyme fitness (log ratio), -2.88:
C18A A19C C35A

Polymerase ribozyme fitness (log ratio), -0.0344:
A17U A98G

Polymerase ribozyme fitness (log ratio), -3.77:
A17G U109G G140U

Polymerase ribozyme fitness (log ratio), -1.94:
A17G C93A A106G

Polymerase ribozyme fitness (log ratio), -0.596:
A17G C96A A119U

Polymerase ribozyme fitness (log ratio), -1.71:
A17G C18A C69G U101G C105U A120U A142U

Polymerase ribozyme fitness (log ratio), ≤ -4.2:
A17G C27U A49U C79A G83U C87U A120U
A17G C93G U102G A120U C129U
A17U A39C U90G C96U G100U C105G
A17U A26G C72U A91G U101G C108U G140C G141U
A17G A52G U53G G59A A97U
A17U C57U A73U G81U C85G C95G A106U A115C G136A
A17U G58C G65A A73C G84U U90C C108G
A17G U53A U61A C85U A97U C108U
A17G A39C A52G U55A C75U U77A C87A
C18G A23C G34A A66U G84U U135A
A17G U44C U45A G48U C95U A98G G124A
A17U U148G
A17U A37G U53G C95A C99G C103A G128U
A17G A24C A41C G68A G94A U111A
A17U A52C C57A C76G A91G C103G
A17U A26C G62U U78G G100A G152U
A17U G68U
A17U G46U A73G U77C G94C
A17U C36A C54U G74C A120U U144A
A17G A24C A41U A91U A98G
A17U C51U C79U G88U C116G A119G A142G G143A
C18A A21C C35U A37G U55G A60G U61A G92U U101G C116G C125U
A17U A97G A107G
A17U A47C G68U G88C
A17U C35U G86U U90C A106G C116A
A17G C35A C69A A91C G100A
C18G A22G A23C C69A G86U
A17U A39C C75U
C18G A49C C57G C87A G128U U146G
A17U A49C G50C
A17G C85U A115U C125A U144G A150C
A17G G88C C114A U127C
A17G C69G C85G A107C A122G
A17U G25U U33G C69U A89C C96U U148G
C18G A30U G42C A66U C95U U139C G143A
C18G A26G A40C A91G C95G A122G C149G
A17U A29U A41C C93G G140U
C18G A23U G62C A97U U144C
C18G A52C C69G C75G G94A C95U A113U
C18G A21C A22U A23G C35A C38A U61A G92U U102G C116G C118U A142C A150U
A17G A22U A28U C51U A52U C93A U104G A106G U111G G133U G152A
A17G C18G A64G C85A G100A A106U A119U
A17G A47C C79G
A17G A23U U55G A66C
A17U G83C U102G C105A
A17G A64G A110U G136U
A17G C35U A49U G74A A91G A122U A137C G140A
A17U C32G G50U G59A C114A
C18G A40U G68A C72U
A17G C35G U55A U61A U90G G100C U139A
A17U A30C C54U C72A C93G
C18G A26U A47U G67C C105G U146A C149G
C18G A49G A73U C93G G117A C123A G136U U144G
C18A A24U C51U U77C G84U C114A U135G U145C
A17G A30G C36U G62C G94U A120U A121G
A17G G58U C99A C114U A115G
C18G A20C C32A A40C U53A A91G
C18A A60C G67U C72U G83U A98C
A17U G86U A115U C116U A122U U134C G140C
A17U C63U C79A U101G U146A
C18A A21G U33G C36A G84A G141C U144A C149U
A17U C27G C43G C54U C63U A121G
A17G C51G G143C
A17G A23U A26G G86A G88U

Polymerase ribozyme fitness (log ratio), -3.06:
A17G U56A G62C G152A

Polymerase ribozyme fitness (log ratio), -2.61:
A17G G59U A97C C99G

Polymerase ribozyme fitness (log ratio), -4.03:
A17G A49C G59U G92A A113G A119U
A17U A40G G94C C132U

Polymerase ribozyme fitness (log ratio), -2.12:
A17U A20G C63A G92A A150U

Polymerase ribozyme fitness (log ratio), -2.31:
A17G A60G C85G A89U

Polymerase ribozyme fitness (log ratio), -0.889:
A17G G86A

Polymerase ribozyme fitness (log ratio), -1.33:
A17G C85G

Polymerase ribozyme fitness (log ratio), -1.5:
A17G C54G

Polymerase ribozyme fitness (log ratio), -2.3:
A17U A20C A26C C93U C131U

Polymerase ribozyme fitness (log ratio), -0.693:
A17U G124U
